Patent US20170137512A1 (Ablynx, published 2017)

B1: A019400072 (bispecific antibody)
chain: DVQLVESGGGVVQPGGSLRLSCSASGLLFSRNSAGWYRQAPGKQREFVARIRQGGSINYADSVKGRFTISRDNSKNTVYLQMNSLRPEDTALYYCSSWREGFYEYWGQGTLVTVSSGGGGSGGGGSGGGGSGGGGSGGGGSGGGGSGGGGSEVQLVESGGGVVQPGGSLRLSCSASGLLFSRNSAGWYRQAPGKQREFVARIRQGGSINYADSVKGRFTISRDNSKNTVYLQMNSLRPEDTALYYCSSWREGFYEYWGQGTLVTVSSGGGGSGGGGSGGGGSGGGGSGGGGSGGGGSGGGGS[about 120 residues omitted]
B2: A019400073 (bispecific antibody)
chain: DVQLVESGGGVVQPGGSLRLSCSASGLLFSRNSAGWYRQAPGKQREFVARIRAGGSINYADSVKGRFTISRDNSKNTVYLQMNSLRPEDTALYYCSGWRTGFYEYWGQGTLVTVSSGGGGSGGGGSGGGGSGGGGSGGGGSGGGGSGGGGSEVQLVESGGGVVQPGGSLRLSCSASGLLFSRNSAGWYRQAPGKQREFVARIRAGGSINYADSVKGRFTISRDNSKNTVYLQMNSLRPEDTALYYCSGWRTGFYEYWGQGTLVTVSSGGGGSGGGGSGGGGSGGGGSGGGGSGGGGSGGGGS[about 120 residues omitted]
B3: A019400074 (bispecific antibody)
chain: DVQLVESGGGVVQPGGSLRLSCSASGLLFSRNSAGWYRQAPGKQREFVARIRAGGSINYADSVKGRFTISRDNSKNTVYLQMNSLRPEDTALYYCSSWREGFYEYWGQGTLVTVSSGGGGSGGGGSGGGGSGGGGSGGGGSGGGGSGGGGSEVQLVESGGGVVQPGGSLRLSCSASGLLFSRNSAGWYRQAPGKQREFVARIRAGGSINYADSVKGRFTISRDNSKNTVYLQMNSLRPEDTALYYCSSWREGFYEYWGQGTLVTVSSGGGGSGGGGSGGGGSGGGGSGGGGSGGGGSGGGGS[about 120 residues omitted]
B4: A019400071 (bispecific antibody)
chain: DVQLVESGGGVVQPGGSLRLSCSASGLLFSRNSAGWYRQAPGKQREFVARIRQGGSINYADSVKGRFTISRDNSKNTVYLQMNSLRPEDTALYYCSGWRTGFYEYWGQGTLVTVSSGGGGSGGGGSGGGGSGGGGSGGGGSGGGGSGGGGSEVQLVESGGGVVQPGGSLRLSCSASGLLFSRNSAGWYRQAPGKQREFVARIRQGGSINYADSVKGRFTISRDNSKNTVYLQMNSLRPEDTALYYCSGWRTGFYEYWGQGTLVTVSSGGGGSGGGGSGGGGSGGGGSGGGGSGGGGSGGGGS[about 120 residues omitted]

Target: human Kv1.3 (Homo sapiens, UniProt P22001)
Assay: cell-based or functional assay

Chain of UniProt P22001 (P22001 whole entry): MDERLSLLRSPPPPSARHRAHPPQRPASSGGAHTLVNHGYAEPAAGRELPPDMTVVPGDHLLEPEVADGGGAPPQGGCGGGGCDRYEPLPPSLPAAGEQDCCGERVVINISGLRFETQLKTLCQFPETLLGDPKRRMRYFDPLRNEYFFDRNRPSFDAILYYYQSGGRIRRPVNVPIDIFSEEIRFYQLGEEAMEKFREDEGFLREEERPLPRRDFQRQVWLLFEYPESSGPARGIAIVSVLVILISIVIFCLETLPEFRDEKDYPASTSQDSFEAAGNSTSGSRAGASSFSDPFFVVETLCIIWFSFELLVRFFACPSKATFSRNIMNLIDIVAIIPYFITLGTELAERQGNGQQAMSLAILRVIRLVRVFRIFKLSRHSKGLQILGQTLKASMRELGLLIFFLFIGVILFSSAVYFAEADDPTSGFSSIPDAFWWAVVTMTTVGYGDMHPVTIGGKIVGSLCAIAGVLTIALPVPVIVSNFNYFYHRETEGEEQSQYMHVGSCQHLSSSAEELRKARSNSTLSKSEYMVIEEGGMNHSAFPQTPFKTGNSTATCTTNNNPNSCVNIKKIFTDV

Binder	IC50, IFNγ production, T-cell activation assay	IC50, IFNγ production, T-cell activation assay, with 2.5 µM HSA
B1	320 pM	670 pM
B2	140 pM	460 pM
B3	160 pM	570 pM
B4	96 pM	410 pM
